Key:
IL-15 cells = experiment: In vitro IL-15 bioassay (Promega, bioluminescent, STAT-5 response element readout); format: cell-based, mouse
Experimental: IL-15 activity was monitored using an IL-15 bioassay (Promega, cat.# JA2015). This is a bioluminescent cell-based assay designed to measure IL-15 stimulation or inhibition using the STAT-5 response element as a readout. When IL-15 binds to its receptor, receptor-mediated pathway signalling induces luminescence that can be detected upon addition of a substrate and quantified with a luminometer. The assay was performed according to the manufacturer's instructions. In short, cleaved or intact antibody-cytokine conjugates or controls were added in duplo to IL-15 cells in a square root of 10-fold dilution series to obtain a final concentration ranging from 0.1 to 1000 pM unless stated otherwise (in case of cleaved constructs the concentration refers to the initial antibody-cytokine conjugate). IL-15 cells were incubated for 6 hours in a humidified atmosphere at 37°C and 5% CO2. Detection reagent (Bio-Gio™ luciferase Assay reagent) was then added and chemiluminescence intensity was recorded with a microplate reader (Envision, PerkinElmer). Data analysis was performed using Graphpad prism software. EC50 values were calculated by non-linear regression and maximum fold induction was calculated by dividing the relative luminescence units (RLU) of treated cells by the RLU of untreated cells (both background substracted).
The activity of 5 intact antibody-cytokine conjugates was measured via the in vitro IL-15 bioassay. mPD-L1-v1a-218-NHO2-PF52 (2:2) was included both with and without pretreatment with MT-SP1 for comparison. MT-SP1 treatment was performed according to example 58. […] Table 3. EC50 values and maximum fold induction of intact and cleaved antibody-cytokine conjugates as determined by the IL-15 bioassay.
Antibody-cytokine conjugates were pre-treated with MT-SP1 according to example 58 to obtain the free cytokines. The activity of 5 cleaved antibody-cytokine conjugates was measured via the in vitro IL-15 bioassay according to the general procedure. […] Table 4. EC50 values and maximum fold induction of antibody-cytokine conjugates pre-treated with MT-SP1 determined by the IL-15 bioassay
mPD-L1-v1a-218-NHO2-PF52 (2:2) and mPD-L1-v1a-218-NHO2-PF56 (2:2) were pre-treated with MT-SP1 according to example 58 to obtain the free cytokines. The activity of both compounds was measured with and without pre-treated with MT-SP1 using the in vitro IL-15 bioassay. Non-modified cytokine PF52 was included as a reference. Cleaved and intact mPD-L1-v1a-218-NHO2-PF56 (2:2) was added in a higher final concentration ranging from 32 pM to 316 nM (square root of 10-fold dilution series). […] Table 5. EC50 values and maximum fold induction of intact and cleaved antibody-cytokine conjugates as determined by the IL-15 bioassay. Non-modified cytokine P52 was included as a reference.
Non-modified cytokine PF50 and the non-modified antibody trastuzumab were included as controls. […] Table 6. EC50 values and maximum fold induction of intact and cleaved antibody-cytokine conjugates as determined by the IL-15 bioassay. Non-modified cytokine P52 was included as a reference.

[1] = In vivo tolerability, single s.c. dose, body weight; parameters: species or system female BALB/c mice; conditions: for MTD: single dose s.c., groups of 3 mice, daily body weight
Experimental: Female BALB/c mice (groups of 3 mice, 6- to 8-week-old at study initiation, obtained from Vital River Laboratory Animal Technology Co., Ltd., China), were treated with vehicle (PBS pH 7.4) or the indicated antibody-cytokine conjugate (at 6 mg/kg), and compared to IC1 (at 6 mg/kg). In all cases a single dose was administered via s.c. injection. After dosing, all animals were measured daily for body weight (Figures 28 and 29, top graphs). Based on the read-out of this initial study, a second tolerability study was performed according to the same procedure but using dosing concentrations ranging from 3 to 12 mg/kg (Figures 28 and 29, middle graphs). Finally, a third study was performed according to the same procedure using dosing concentrations ranging from 4.5 to 18 mg/kg (Figures 28 and 29, bottom graphs).

[2] = Freeze-thaw stability study, aggregate levels by SE-HPLC; format: physicochemical; conditions: 1 mg/mL in PBS pH 7.4; snap-frozen in liquid nitrogen and thawed 5 times; SE-HPLC after 0, 1, 3 and 5 cycles; compared to genetic fusion IC1
Experimental: HPLC-SEC analysis was performed on an Agilent 1100 series (Hewlett Packard) using an Xbridge BEH200A (3.5 µM, 7.8x300 mm, PN 186007640 Waters) column. The sample was diluted to 1 mg/mL in PBS and measured with 0.86 mL/min isocratic method (0.1 M sodium phosphate buffer pH 6.9 (NaHPO4/Na2PO4) containing 10% isopropanol) for 16 minutes.
Next, samples were snap-frozen using liquid nitrogen and thawed again. This step was performed 5 times. Aggregate levels were determined by SE-HPLC after 0, 1, 3 and 5 cycles (Figure 21).

CT26 tumor cells = experiment: In vivo efficacy in CT26 syngeneic colon cancer model; parameters: species or system Female BALB/c mice; conditions: s.c. 3 or 6 mg/kg on day 0 and day 7; tumor volume
Experimental: Female BALB/c mice (5- to 8-week-old at study initiation, obtained from Vital River Laboratory Animal Technology Co., Ltd., China) were inoculated subcutaneously it the right rear flank region with 5 × 10^5 CT26 tumor cells in 0.1 ml of PBS for tumor development. When the tumor volume was in the range of 70 to 120 mm^3, groups of eight mice were injected s.c. with either vehicle (PBS pH 7.4) or the indicated antibody-cytokine conjugate (either 3 or 6 mg/kg as indicated). In all cases a dose was administered on day 0 and 7.

[3] = Stability in PBS pH 7.4 at 37°C by RP-UPLC (cytokine-to-antibody ratio); conditions: 1 mg/mL in PBS pH 7.4, 37°C
[4] = Table 4, pre-treated with MT-SP1 (+)
[5] = pre-treated with MT-SP1, versus mPD-L1-v1a-218-NHO2-PF52 (2:2)

B1: mPD-L1-v1a-218-NHO1-PF51 (2:2): conjugate of azido-remodeled anti-murine PD-L1 antibody mPD-L1-v1a with 218-NHO1-PF51 (SYR-cleavable linker 2-IL15), 2:2 format (conjugate)
light: QSALTQPASVSGSPGQSITISCTGTSSDVGAYNYVSWYQQHPGKAPKLMIYDVSNRPSGVSNRFSGSKSGNTASLTISGLQAEDEADYYCSSYTSSSTRVFGTGTKVTVLGQPKANPTVTLFPPSSEELQANKATLVCLISDFYPGAVTVAWKADGSPVKAGVETTKPSKQSNNKYAASSYLSLTPEQWKSHRSYSCQVTHEGSTVEKTVAPTEC
heavy: EVQLLESGGGLVQPGGSLRLSCAASGFTFSAYRMFWVRQAPGKGLEWVSSIYPSGGITFYADSVKGRFTISRDNSKNTLYLQMNSLRAEDTAIYYCARIKLGTVTTVDYWGQGTLVTVSSASTKGPSVFPLAPSSKSTSGGTAALGCLVKDYFPEPVTVSWNSGALTSGVHTFPAVLQSSGLYSLSSVVTVPSSSLGTQTYICNVNHKPSNTKVDKRV[human IgG1 Fc cut from this listing]
chain: MSYRGGGGSGGGGSRASRANGS[about 120 residues cut from this listing]
EC50 (IL-15 cells; [4]): 3.8 pM
Fold induction (maximum) (IL-15 cells; [4]): 7.5
Potency in terms of EC50 values and maximum fold induction compared to the genetic fusion IC1 (IL-15 cells; pre-treated with MT-SP1): higher potency
Mean body weight loss ([1]; single dose s.c. at 18 mg/kg): ≤ 10%
Signs of toxicity ([1]; single dose s.c. at 6 and 12 mg/kg): no signs of toxicity
MTD [1]: ~ 18 mg/kg
Aggregation after freeze-thaw cycles [2]: less prone to aggregation

B2: mPD-L1-v1a-218-NHO2-PF56 (2:2): conjugate of mPD-L1-v1a with 218-NHO2-PF56 (ST-cleavable linker 2-IL15(E46G,V49R)), lacking IL-15Rα-binding, 2:2 format (conjugate)
light: QSALTQPASVSGSPGQSITISCTGTSSDVGAYNYVSWYQQHPGKAPKLMIYDVSNRPSGVSNRFSGSKSGNTASLTISGLQAEDEADYYCSSYTSSSTRVFGTGTKVTVLGQPKANPTVTLFPPSSEELQANKATLVCLISDFYPGAVTVAWKADGSPVKAGVETTKPSKQSNNKYAASSYLSLTPEQWKSHRSYSCQVTHEGSTVEKTVAPTEC
heavy: EVQLLESGGGLVQPGGSLRLSCAASGFTFSAYRMFWVRQAPGKGLEWVSSIYPSGGITFYADSVKGRFTISRDNSKNTLYLQMNSLRAEDTAIYYCARIKLGTVTTVDYWGQGTLVTVSSASTKGPSVFPLAPSSKSTSGGTAALGCLVKDYFPEPVTVSWNSGALTSGVHTFPAVLQSSGLYSLSSVVTVPSSSLGTQTYICNVNHKPSNTKVDKRV[human IgG1 Fc cut from this listing]
chain: MSTGGGGSGGGGSRASRANGS[about 120 residues cut from this listing]
Fold induction (maximum) (IL-15 cells; Table 5, MT-SP1 +, PF56 conjugate tested at 32 pM to 316 nM): 5.2
Fold higher EC50 value (IL-15 cells; [5]): > 1000 fold
Mice found dead ([1]; single dose s.c. 6 mg/kg, day 5): 1 out of 3
MTD [1]: ~ 4.5 mg/kg
Anti-tumor efficacy compared to the vehicle group (CT26 tumor cells): anti-tumor efficacy compared to the vehicle group

B3: mPD-L1-v1a-145-NHO2-PF52 (2:1): conjugate of mPD-L1-v1a-145 (cross-linked with trivalent linker 145) with NHO2-PF52, 2:1 format (conjugate)
light: QSALTQPASVSGSPGQSITISCTGTSSDVGAYNYVSWYQQHPGKAPKLMIYDVSNRPSGVSNRFSGSKSGNTASLTISGLQAEDEADYYCSSYTSSSTRVFGTGTKVTVLGQPKANPTVTLFPPSSEELQANKATLVCLISDFYPGAVTVAWKADGSPVKAGVETTKPSKQSNNKYAASSYLSLTPEQWKSHRSYSCQVTHEGSTVEKTVAPTEC
heavy: EVQLLESGGGLVQPGGSLRLSCAASGFTFSAYRMFWVRQAPGKGLEWVSSIYPSGGITFYADSVKGRFTISRDNSKNTLYLQMNSLRAEDTAIYYCARIKLGTVTTVDYWGQGTLVTVSSASTKGPSVFPLAPSSKSTSGGTAALGCLVKDYFPEPVTVSWNSGALTSGVHTFPAVLQSSGLYSLSSVVTVPSSSLGTQTYICNVNHKPSNTKVDKRV[human IgG1 Fc cut from this listing]
chain: STGGGGSGGGGSRASRANGS[about 120 residues cut from this listing]
EC50 (IL-15 cells; [4]): 7.7 pM
Fold induction (maximum) (IL-15 cells; [4]): 7.3
Fold higher EC50 value compared to the 2:2 format (IL-15 cells; [5]): ~2 fold
MTD [1]: ~9 mg/kg
Anti-tumor efficacy compared to the vehicle group (CT26 tumor cells): anti-tumor efficacy compared to the vehicle group
Aggregation after freeze-thaw cycles [2]: less prone to aggregation

B4: mPD-L1-v1a-218-NHO2-PF54 (2:2): non-cleavable variant: conjugate of mPD-L1-v1a with 218-NHO2-PF54 (ST-(G4S)3GGS-IL15), 2:2 format (conjugate)
light: QSALTQPASVSGSPGQSITISCTGTSSDVGAYNYVSWYQQHPGKAPKLMIYDVSNRPSGVSNRFSGSKSGNTASLTISGLQAEDEADYYCSSYTSSSTRVFGTGTKVTVLGQPKANPTVTLFPPSSEELQANKATLVCLISDFYPGAVTVAWKADGSPVKAGVETTKPSKQSNNKYAASSYLSLTPEQWKSHRSYSCQVTHEGSTVEKTVAPTEC
heavy: EVQLLESGGGLVQPGGSLRLSCAASGFTFSAYRMFWVRQAPGKGLEWVSSIYPSGGITFYADSVKGRFTISRDNSKNTLYLQMNSLRAEDTAIYYCARIKLGTVTTVDYWGQGTLVTVSSASTKGPSVFPLAPSSKSTSGGTAALGCLVKDYFPEPVTVSWNSGALTSGVHTFPAVLQSSGLYSLSSVVTVPSSSLGTQTYICNVNHKPSNTKVDKRV[human IgG1 Fc cut from this listing]
chain: STGGGGSGGGGSGGGGSGGS[about 120 residues cut from this listing]
Stability as percentage of the cytokine-to-antibody ratio compared to T0 ([3]; day 1): 99%
Stability as percentage of the cytokine-to-antibody ratio compared to T0 ([3]; day 3): 97%
Stability as percentage of the cytokine-to-antibody ratio compared to T0 ([3]; day 7): 95%
Stability as percentage of the cytokine-to-antibody ratio compared to T0 ([3]; day 10): 93%
Stability as percentage of the cytokine-to-antibody ratio compared to T0 ([3]; day 14): 92%
Stability as percentage of the cytokine-to-antibody ratio compared to T0 ([3]; day 21): 86%
Stability as percentage of the cytokine-to-antibody ratio compared to T0 ([3]; day 28): 85%
